# This is one part of the list.
# Tested on: T1, C. trachomatis L2/434/Bu expressing GFP (CTL2-GFP)
# T1 construct: L2/434/Bu GFP intracellular growth in HeLa cells
# Parameters: species or system HeLa; C. trachomatis total inclusion area by high-content imaging, normalised to DMSO
# Details: total inclusion area; 28.5 h, 10 µM; inhibitor
# Description: In this process, we also complemented the assay described above with an imaging-based readout (Fig 1B). After measurements of bulk GFP and resorufin fluorescence, cells were fixed, stained with the DNA dye Hoechst, and imaged at a high-content imaging platform to detect chlamydial inclusions (GFP) and host cell nuclei (Hoechst). The total area and number of inclusions in individual wells and the number of nuclei then served as additional proxies for chlamydial growth and host cell viability. […] MICs were calculated as described above.
row,SMILES,% of control remaining
1,Cc1ccn2ncc(C(=O)N3CCCCCC3c3ccco3)c2n1 (stereo not shown) [CBK304015],60.9668
2,c1cc(CCCOc2cc(N3CCCC3)ncn2)ccn1 [CBK115897],91.9782
3,O=C(NC(c1ccc(F)cc1)c1ccc2ccccc2n1)C1CCN(CCCN2CCOCC2)CC1 (stereo not shown) [CBK148118],109.853
4,N#CCCCN1CCC(Oc2nccnc2OC2CCCCC2)CC1 [CBK082871T],86.0338
5,Cc1ccc(C#N)cc1S(=O)(=O)NC(=O)CC1CCOc2ccccc21 (stereo not shown) [CBK306476],52.0722
6,CN(CC(=O)N1CCN(Cc2ccccc2)CC1)S(=O)(=O)c1ccc2ccccc2c1 [CBK267117],84.1814
7,CSCCC(=O)N1CCC2(CCN(Cc3ccccc3)CC2)C1 [CBK136757],97.2469
8,Nc1nnc(Sc2nc3cc(Cl)c(Cl)cc3nc2N2CCCC2)s1 [CBK115267],81.5014
9,CN1CCN(c2cc(C(F)(F)F)c3scc(C(=O)NCCC4=CCCCC4)c3n2)CC1 [CBK028474],9.302
10,O=C(NC(c1ccc(F)cc1)c1cnccn1)C1CCN(S(=O)(=O)c2cccc(Cl)c2)CC1 (stereo not shown) [CBK060013],117.551
11,O=C(Nc1ccc(Cl)cc1)c1ccc(N2CCN(Cc3ccccc3)CC2)c([N+](=O)[O-])c1 [CBK264422],132.585
12,COC1CCCN(Cc2cncn2C2CCCCC2)C1 (stereo not shown) [CBK306542],44.5061
13,Cc1ccc(C(C)C(=O)N2CCC(O)(c3ccccn3)CC2)cc1 (stereo not shown) [CBK283787],95.0879
14,Cc1nc2c(C(=O)NCCCN3CCCC3=O)cnn2c(C)c1Cc1cccnc1 [CBK162151],88.8398
15,O=c1cc(CN2CCOCC2)oc2c(OCc3nnnn3C3CC3)cccc12 [CBK007813],50.023
16,O=S(=O)(Cc1ccc(Cl)cc1Cl)N1CCOCC1 [CBK058967],54.3846
17,CN1CCC(N(C)Cc2ccccc2[N+](=O)[O-])CC1 [CBK261565],100.366
18,Cc1cc(Cl)cc(C)c1OCCN1CCNCC1 [CBK266057G],112.479
19,CC(c1ccccc1)N1Cc2cccc(C(=O)O)c2C1=O (stereo not shown) [CBK291252],108.653
20,Cc1nnc(SCc2nnc(-c3ccccc3)o2)n1Cc1ccccc1 [CBK269743],73.1584
21,COCCNC(=O)N(CCC#N)C1CCCCC1 [CBK156358],96.2224
22,O=C1CCc2cc(S(=O)(=O)Nc3ccccc3Cc3ccccc3)ccc2N1 [CBK286369],95.3544
23,CCN1C(=O)c2cccc3c(S(=O)(=O)N4CCCC4C(=O)O)ccc1c23 (stereo not shown) [CBK267169],103.198
24,O=C(COc1ccccc1)n1nc(-c2ccco2)nc1NCc1cccs1 [CBK269145],101.67
25,CCOc1cccc(CNn2cnnc2)c1OCc1ccccc1 [CBK265824],72.5792
26,CC(=O)NCCNC(=O)c1cnc(-c2ccc(Cl)cc2)c(-c2ccc(O)cc2)c1 [CBK036647],116.778

row,SMILES,% of control remaining
1,Cc1cccc(C(=O)N[C@@H](C)Cn2nc3c(cc2=O)CCCC3)c1 [CBK284563],118.704
2,O=C(Nc1cc(-c2nc3ncccc3o2)ccc1Cl)c1ccc2c(c1)OCCO2 [CBK264105],95.7683
3,CC(C)(C)c1cc(CNCCS(=O)(=O)O)c(O)c(C(C)(C)C)c1 [CBK261098],91.1902
4,Cc1nn(C)c(C)c1CN(C)S(=O)(=O)Cc1ccc(F)cc1 [CBK281590],71.2205
5,CN(C)CCN(C)C(=O)Cc1csc(-c2cccc(Cl)c2)n1 [CBK282176],70.7906
6,O=C(O)c1ccc(-c2cnc3ccccc3n2)cc1 [CBK288010],79.9617
7,Cc1ncsc1CCN(C)C(C)C(=O)Nc1nccs1 (stereo not shown) [CBK307709],62.5363
8,Cc1ccc(CC(=O)N2CC(=O)Nc3ccccc32)cc1 [CBK287670],62.9095
9,COc1ccc(NC(=O)c2ccc(-c3nnn[nH]3)cc2)cc1Cl [CBK295139],100.835
10,CCOc1cc(OCC)cc(C(=O)N2CCC3(CC2)CC(=O)c2cc(OCC)ccc2O3)c1 [CBK168013],111.934
11,O=C(C1CCCN(CC(O)c2cccs2)C1)N1CCCCCC1 (stereo not shown) [CBK282117],89.5379
12,COc1nccc(N2CCC3(CCC(=O)N(CCO)C3)CC2)c1C#N [CBK307255],67.2516
13,O=C(CSc1nnc(SCc2cccc3ccccc23)s1)Nc1ccccc1C(F)(F)F [CBK267575],108.835
14,COc1ccc(CNC(=O)N(C)C2CCN(C)C2)cc1OC (stereo not shown) [CBK156020],118.443
15,Cc1cc(N)n(-c2nc3c(cnn3-c3ccc(C)c(C)c3)c(=O)[nH]2)n1 [CBK287646],86.5468
16,Cc1oc(-c2cccc(Cl)c2)cc1C(=O)O [CBK045856],84.7626
17,O=C(c1csc(-c2ccncc2)n1)N1CCN(c2ccccc2)CC1 [CBK288590],111.423
18,CCOC(=O)CSc1nc2ccccc2nc1C(F)(F)F [CBK107200],54.6735
19,COCOc1ccc(-c2nc(-c3cccnc3)cnc2N)cc1 [CBK063999],121.448
20,Oc1nc(CSc2nnc(-c3ccncc3)n2-c2ccccc2)nc2ccccc12 [CBK264851],99.5667
21,CN1CCN(NC(=O)C2C3C=CC(C3)C2C(=O)O)CC1 (stereo not shown) [CBK286915],106.309
22,Cc1cc(NS(=O)(=O)c2ccc(N3CCOCC3)nc2)n(C)n1 [CBK067253],101.353
23,c1ncc(N2CCCC2)nc1OC1CCOC1 (stereo not shown) [CBK115893],90.9275
24,CCC(NC(=O)C(C)Cn1cccn1)c1ccc(F)cc1 (stereo not shown) [CBK283210],95.5374
25,O=C(O)c1cc(S(=O)(=O)NCc2ccc(Cl)cc2Cl)ccc1O [CBK296924],69.9422
26,O=C(c1ccc(-c2nccnc2NCc2ccc(C(F)(F)F)cc2)cc1)N1CCOCC1 [CBK036931],119.977
